# Values joined by “and” are separate entries in the source; they are usually repeats but may differ in a detail not shown here. Equal entries are not always repeated. Among all 410,000 compounds or so, about 5,000 (1.2%) were called active. This list was built around the results that the source calls inconclusive (neither active nor inactive); the mix of calls is not that of the screen. Calls come from the whole dose curve; as a rule, active = well fitted inhibition curve with a large enough effect; inconclusive = small, poorly fitted or top-dose-only effect; inactive = no such curve, though single readings can be large or run the other way. Potencies of inconclusive entries are doubtful fits and often do not repeat.
# Assay: qHTS for Inhibitors of TGF-b; note: nearly all actives have a fitted effect of over 65% in size
# Settings: HepG2 CAGA-GFP TGF-b/SMAD3 reporter, GFP fluorescence, 18 h, TGF-beta stimulated, 500 pg/mL final; series mostly up to 46.1 µM
# Procedure, shortened: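 GFP signal (ex488/em500-530) from TGF-beta-stimulated HEPG2 CAGA-GFP cells, 500 pg/mL final, 18 h at 37 degrees C in DMEM plus 1% FBS, normalized to unstimulated and DMSO-stimulated controls.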
# Potency is the fitted concentration of half-maximal effect; tags give direction and shape of the fitted curve.
row,Compound,Potency
1,CN(C)S(=O)(=O)c1cccc(NC(=S)Nc2cccc3cnccc23)c1,inactive
2,CSc1cccc(NC(=O)CC(c2ccc(F)cc2)N2Cc3ccccc3C2=O)c1 (stereo not given),"inconclusive: 0.708 µM [inhibitor, full curve, poor fit]"
3,COc1ccc(OC)c(NC(=O)CSC2=Nc3ccccc3C3=NC(CCC(=O)NC4CCCCC4)C(=O)N23)c1 (stereo not given),inactive
4,COc1cc(C(=S)N2CCCC2)ccc1OS(=O)(=O)c1ccc(NC(C)=O)cc1,inactive
5,COC(=O)Cc1ccc(NC(=S)NC2CC2)cc1,inactive
6,CC(C)[C@H](NS(=O)(=O)c1ccc2c(c1)OCCO2)C(=O)OCC(=O)Nc1cccc(Cl)c1Cl,"inconclusive: 11.2 µM [inhibitor, partial curve]"
7,CSc1ncc(C(=O)N2CCN(c3ccc(Cl)cc3)CC2)c(C)n1,"inconclusive: 35.5 µM [inhibitor, single point]"
8,CN(C)C(=O)c1ccc2c(c1)C1C3CCC(C3)C1C(c1ccccc1)N2 (stereo not given),"inconclusive: 14.1 µM [inhibitor, partial curve, poor fit]"
9,Cc1cccc(-n2c(=O)[nH]c3c(C(N)=O)nc(-c4ccccc4Cl)nc32)c1,"inconclusive: 17.8 µM [inhibitor, single point]"
10,O=C(C1CCN(S(=O)(=O)c2c(Cl)cccc2Cl)CC1)N1CCCCCCC1,inactive
11,COc1ccc(C(=O)c2c(N)c(-c3nc(-c4ccccc4)cs3)c3ccccn23)cc1,inactive
12,CCOP(=O)(NC12CC3CC(CC(C3)C1)C2)NC12CC3CC(CC(C3)C1)C2,inactive
13,COc1ccc(S(=O)(=O)N(C)C[C@H]2Oc3ccc(NC(=O)Nc4ccccc4)cc3C(=O)N([C@H](C)CO)C[C@@H]2C)cc1,"inconclusive: 0.398 µM [inhibitor, full curve, poor fit]"
14,CC(C)c1ccc(Nc2nc(Cl)nc(NCCO)n2)cc1,"inconclusive: 22.4 µM [inhibitor, single point]"
15,O=C(O)c1ccc2c(c1)OCCCO2,"inconclusive: 35.5 µM [inhibitor, single point]"
16,O=C(/C=C/c1ccc(F)cc1)NC(=S)NNC(=O)c1cnccn1,inactive
17,Cc1cccc(Nc2nc(NCc3ccco3)c3ccccc3n2)c1,"inconclusive: 15.8 µM [inhibitor, partial curve, poor fit]"
18,CC(=O)N1CCc2c(sc3c2c(=O)n(-c2ccccc2)c(=O)n3Cc2cccc(C(F)(F)F)c2)C1,"inconclusive: 35.5 µM [inhibitor, single point]"
19,Cc1ccc(Nc2nc3nonc3[nH]c2=O)cc1C,"inconclusive: 25.1 µM [inhibitor, single point]"
20,O=c1[nH]c(Sc2ccc([N+](=O)[O-])cc2[N+](=O)[O-])nc2ccccc12,active: 14.1 µM
21,CCOC(=O)c1sc(Nc2ccc(F)cc2)nc1C,"inconclusive: 11.2 µM [inhibitor, single point]"
22,CC1(C(=O)NCc2cc(F)cc(C(F)(F)F)c2)C=CC2(CCCCC2)N1C(=O)c1ccccc1 (stereo not given),"inconclusive: 11.2 µM [inhibitor, single point]"

row,Compound,Potency
1,CCOc1ccc(-n2c(-c3ccco3)n[nH]c2=S)cc1,"inconclusive: 0.112 µM [inhibitor, full curve, poor fit]"
2,Cc1ccc(CCNS(=O)(=O)c2ccc3c(c2)CCN3C(=O)CCC(=O)O)cc1,inactive
3,COc1ccc(-c2cc(C(=O)NCCc3ccccc3)c3c(-c4ccccc4)[nH]nc3n2)cc1,"inconclusive: 1.12 µM [inhibitor, full curve, poor fit]"
4,Cc1cccc(N2CCN(C(=O)CCCn3ncn4c(cc5occc54)c3=O)CC2)c1C,"inconclusive: 14.1 µM [inhibitor, single point]"
5,CCOc1cc(CNCCSc2nnnn2C)cc(Cl)c1OCc1ccc(Cl)cc1,"inconclusive: 35.5 µM [inhibitor, single point]"
6,Cn1c(=O)n(C)c2cc(N3CCOCC3)c(NS(=O)(=O)c3ccc(Br)cc3)cc21,inactive
7,CCN1C=C(Cc2ccc(F)cc2)C2=C(C1)C(c1ccc(F)cc1)C(C#N)=C(N)O2 (stereo not given),"inconclusive: 35.5 µM [inhibitor, single point]"
8,Cc1ccc(S(=O)(=O)Nc2cccc(C(=O)NCCCN3CCCC3=O)c2)cc1F,"inconclusive: 35.5 µM [inhibitor, single point]"
9,O=C(OCc1ccccc1)N1CCC2CC1c1cc(Cl)ccc12 (stereo not given),"inconclusive: 17.8 µM [inhibitor, single point]"
10,CC(=O)c1c(C)[nH]c(C(=O)N2CCN(S(=O)(=O)c3ccc(C)cc3C)CC2)c1C,"inconclusive: 25.1 µM [inhibitor, single point]"
11,Cc1ccccc1S(=O)(=O)NC(=O)C1(C)CCN1C(=O)Cc1ccccc1Cl (stereo not given),inactive
12,Cc1ccc(NS(=O)(=O)c2cc(C(=O)N3CCN(C)CC3)ccc2C)cc1,"inconclusive: 6.31 µM [inhibitor, single point]"
13,O=C(CCS(=O)(=O)c1ccc(Cl)cc1)N1CCN(S(=O)(=O)c2cccs2)CC1,"inconclusive: 5.01 µM [inhibitor, full curve]"
14,COc1ccccc1-c1cnc2c(Nc3cccc(OC(F)(F)C(F)F)c3)nccn12,"inconclusive: 35.5 µM [inhibitor, single point]"
15,Oc1ccccc1C1C=C(c2ccc3c(c2)OCO3)NC(c2cccc(Br)c2)N1 (stereo not given),"inconclusive: 35.5 µM [inhibitor, single point]"
16,O=C1C(c2ccc(F)cc2)N(Cc2ccc3c(c2)OCO3)C(=O)CN1C1CCCC1 (stereo not given),"inconclusive: 6.31 µM [inhibitor, full curve, poor fit]"
17,O=C(CCC(=O)N1CCN(S(=O)(=O)c2ccc(Cl)cc2)CC1)Nc1ccc2ccccc2c1,"inconclusive: 10 µM [inhibitor, partial curve]"
18,CC(O)(c1ccc(F)c(F)c1)c1nc(-c2cccc(C(F)(F)F)c2)cs1 (stereo not given),"inconclusive: 17.8 µM [inhibitor, single point]"
19,COc1ccc(/C=C/c2nc3ccccc3c(=O)n2-c2cccc(C(F)(F)F)c2)cc1,"inconclusive: 15.8 µM [inhibitor, single point]"
20,O=C(CC1(O)C(=O)Nc2ccccc21)c1ccccc1 (stereo not given),inactive
21,CCn1nc(C)c2c(-c3ccccc3)cc(=O)n(C(C)C(=O)NCc3ccc(C)cc3)c21 (stereo not given),"inconclusive: 20 µM [inhibitor, single point]"
22,Cc1cc(C)c(NC(=O)c2ccccc2CCc2ccccc2)c(C)c1,"inconclusive: 14.1 µM [inhibitor, single point]"

row,Compound,Potency
1,COc1cc(OC)cc(-c2sc3ccc(OC)cc3c2-c2ccc(O)cc2)c1,"inconclusive: 35.5 µM [inhibitor, single point]"
2,CCCCCNC(=O)CCn1c(=O)[nH]c2ccccc2c1=O,"inconclusive: 35.5 µM [inhibitor, single point]"
3,CCNCc1ccc(OCc2ccccc2F)c(OC)c1,inactive
4,COc1ccc(-c2nnc3sc(-c4ccco4)nn23)cc1OC,"inconclusive: 2.82 µM [inhibitor, partial curve, poor fit]"
5,CCCCN1C(C)=CC(=C2C(=O)c3ccccc3C2=O)C=C1C,inactive
6,CCN(CC)S(=O)(=O)c1cccc(-c2nnc(-c3ccc(C)cc3)o2)c1,inactive
7,Cc1nn(-c2ccccc2Cl)c(Cl)c1/C=C(\C#N)C(N)=O,"inconclusive: 0.631 µM [inhibitor, partial curve, poor fit]"
8,Oc1ccc(Br)cc1/C=N/Nc1ccccn1,active: 0.562 µM
9,O=C(c1cc2ccccc2o1)N1CCCCCC1,inactive
10,CC(=O)N1c2ccc(Cl)cc2C2C=CCC2C1c1cccc2ccccc12 (stereo not given),"inconclusive: 12.6 µM [inhibitor, partial curve, poor fit]"
11,O=C(C[n+]1ccccc1)N/N=C/c1cc(Br)ccc1F,"inconclusive: 6.31 µM [inhibitor, partial curve, poor fit]"
12,COc1cc2c(cc1OC)CN(C(=O)c1cccc([N+](=O)[O-])c1)CC2,inactive
13,COc1cc(CNCCc2ccc(F)cc2)ccc1OCc1ccc(Cl)nc1,"inconclusive: 35.5 µM [inhibitor, single point]"
14,CCc1ccccc1OCCSc1nnc(-c2cc(OC)c(OC)c(OC)c2)o1,"inconclusive: 22.4 µM [inhibitor, partial curve, poor fit]"
15,COc1cc2nc(Nc3ccc(F)cc3)nc(N)c2cc1OC,"inconclusive: 20 µM [inhibitor, partial curve, poor fit] and inconclusive: 11.2 µM [inhibitor, partial curve, poor fit]"
16,O=C(CN1C(=O)CCC1=O)c1ccc(-c2ccccc2)cc1,inactive
17,C=CCC[C@@H](Cc1ccc(F)cc1)C(=O)O[C@H](CNC(=O)[C@H](CC=C)CC(=O)N(CCO)Cc1ccccc1)c1ccccc1,"inconclusive: 35.5 µM [inhibitor, single point]"
18,CCOC(=O)c1cccc(NC(=O)C(Cc2ccccc2)NS(=O)(=O)c2cccc3nsnc23)c1 (stereo not given),"inconclusive: 35.5 µM [inhibitor, partial curve, poor fit]"
19,CCC(C)c1ccc(C(C)NC(=S)NCc2ccc(F)cc2)cc1 (stereo not given),active: 17.8 µM
20,c1ccc(Nc2nc(Nc3ccccc3)nc(N3CCNCC3)n2)cc1,"inconclusive: 22.4 µM [inhibitor, single point]"
21,O=C(NCc1ccc2c(c1)OCO2)C1CCCN(S(=O)(=O)c2cccc3cccnc23)C1 (stereo not given),"inconclusive: 20 µM [inhibitor, single point]"
